# Records with an inconclusive call do not appear. Certain results were filed several times, with different values. This list holds those alone. The source may hold further records. Values given together are repeats (runs, samples, wells, individuals or studies).
# Test system: MX-1 breast xenograft, nude mice, tumor weight T/C
# Assay: NCI In Vivo Anticancer Drug Screen. Data for tumor model Human Mammary Carcinoma MX-1 Xenograft (intrarenal inoculation) in NU/NU Swiss (nude) mice
# Details: endpoint: mean tumor weight change, higher = larger tumour
# Protocol: The antitumor activity of compounds was measured in mice bearing transplantable tumors. Survival or tumor size were measured and the results are expressed as the measurement made in the treated group (T) divided by the measurement made in the vehicle treated control group (C). The tumor model used in this assay is Human Mammary Carcinoma MX-1 Xenograft (intrarenal inoculation) in NU/NU Swiss (nude) mice
# [1] = dose: 12.5 mg/kg/injection, schedule: Q01DX010 (sc), vehicle: saline
# [2] = dose: 400.0 mg/kg/injection, schedule: Q04DX003 (sc), vehicle: saline with Tween-80
smiles,measurement,setting,value
CC(=O)OCC1OC(n2cc(CBr)nn2)C(OC(C)=O)C(OC(C)=O)C1OC(C)=O (centres undefined),T/C,"dose: 100.0 mg/kg/injection, schedule: Q01DX010 (sc), vehicle: saline with Tween-80",17 % of control and 104 % of control
CNC(=O)OCc1c(COC(=O)NC)c(C)n(-c2ccc(OC)cc2)c1C,T/C,"dose: 200.0 mg/kg/injection, schedule: Q04DX003 (sc), vehicle: Klucel (hydroxypropylcellulose) (HPC)",-32 % of control and 37 % of control
same,T/C,"dose: 400.0 mg/kg/injection, schedule: Q04DX003 (sc), vehicle: Klucel (hydroxypropylcellulose) (HPC)",-99 % of control and 1 % of control
COC1OC(CO)C(O)C(NC(=O)N(C)N=O)C1O (centres undefined),T/C,"dose: 450.0 mg/kg/injection, schedule: Q04DX003 (sc), vehicle: saline","31 % of control, 76 % of control, 86 % of control"
C=CCNc1ccc(C)cc1,T/C,"dose: 100.0 mg/kg/injection, schedule: Q01DX010 (sc), vehicle: Klucel (hydroxypropylcellulose) (HPC)","77 % of control, 109 % of control, 110 % of control"
CC(C)[NH-].CC(C)[NH-].[Cl][Pt+2][Cl],T/C,"dose: 37.5 mg/kg/injection, schedule: Q04DX003 (sc), vehicle: dextrose","15 % of control, 25 % of control, 101 % of control"
same,T/C,"dose: 75.0 mg/kg/injection, schedule: Q04DX003 (sc), vehicle: dextrose","2 % of control, 8 % of control, 66 % of control"
same,T/C,"dose: 150.0 mg/kg/injection, schedule: Q04DX003 (sc), vehicle: dextrose","-61 % of control, 3 % of control, 43 % of control"
CC[C@](C)(O)C(=O)O[C@H]1C(=O)O[C@@H]2C[C@H]3C(C)=CC(=O)[C@@H](O)[C@]3(C)[C@H]3[C@@]4(O)OC[C@]32[C@@H]1[C@@H](C)[C@H]4O,T/C,"dose: 0.25 mg/kg/injection, schedule: Q01DX010 (sc), vehicle: Klucel (hydroxypropylcellulose) (HPC)","120 % of control, 122 % of control, 166 % of control"
same,T/C,"dose: 0.5 mg/kg/injection, schedule: Q01DX010 (sc), vehicle: Klucel (hydroxypropylcellulose) (HPC)","52 % of control, 82 % of control, 120 % of control"
same,T/C,"dose: 1.0 mg/kg/injection, schedule: Q01DX010 (sc), vehicle: Klucel (hydroxypropylcellulose) (HPC)",13 % of control and 74 % of control
CC1CCC(n2cnc3c(Cl)ncnc32)O1 (centres undefined),T/C,"dose: 150.0 mg/kg/injection, schedule: Q04DX003 (sc), vehicle: Klucel (hydroxypropylcellulose) (HPC)",10 % of control and 86 % of control
CCOC(OCC)C(=O)OCC(=O)[C@]1(O)Cc2c(O)c3c(c(O)c2[C@@H](OC2CC(N)C(O)C(C)O2)C1)C(=O)c1c(OC)cccc1C3=O (some centres undefined),T/C,"dose: 1.0 mg/kg/injection, schedule: Q01DX010 (sc), vehicle: water","48 % of control, 57 % of control, 118 % of control"
same,T/C,"dose: 2.0 mg/kg/injection, schedule: Q01DX010 (sc), vehicle: water",28 % of control and 60 % of control
CCCCNC(C)[C@]1(O)Cc2c(O)c3c(c(O)c2[C@@H](OC2CC(N)C(O)C(C)O2)C1)C(=O)c1c(OC)cccc1C3=O (some centres undefined),T/C,[1],"14 % of control, 20 % of control, 70 % of control"
COC(=O)Nc1cccc(-c2nc3ccc(NC(=O)OC)cc3c(=O)n2-c2ccccc2)c1,T/C,"dose: 50.0 mg/kg/injection, schedule: Q01DX010 (sc), vehicle: Klucel (hydroxypropylcellulose) (HPC)",87 % of control and 158 % of control
same,T/C,"dose: 200.0 mg/kg/injection, schedule: Q01DX010 (sc), vehicle: Klucel (hydroxypropylcellulose) (HPC)",82 % of control and 108 % of control
CC1CN1C(=O)NCCCCCCNC(=O)N1CC1C (centres undefined),T/C,"dose: 10.0 mg/kg/injection, schedule: Q04DX003 (sc), vehicle: Klucel (hydroxypropylcellulose) (HPC)","8 % of control, 17 % of control, 65 % of control"
same,T/C,"dose: 20.0 mg/kg/injection, schedule: Q04DX003 (sc), vehicle: Klucel (hydroxypropylcellulose) (HPC)","-64 % of control, 5 % of control, 11 % of control"
O=C(O)C1(C(=O)O)CCC1.[NH2-].[NH2-].[Pt+2],T/C,"dose: 25.0 mg/kg/injection, schedule: Q01DX010 (sc), vehicle: dextrose",-55 % of control and -20 % of control
CN1CCN(c2ccc3nc(-c4ccc5nc(-c6ccc(O)cc6)[nH]c5c4)[nH]c3c2)CC1,T/C,"dose: 500.0 mg/kg/injection, schedule: Q04DX003 (sc), vehicle: suspension in saline",75 % of control and 171 % of control
same,T/C,"dose: 800.0 mg/kg/injection, schedule: Q04DX003 (sc), vehicle: saline",14 % of control and 67 % of control
Nc1nnc[se]1,T/C,"dose: 200.0 mg/kg/injection, schedule: Q04DX003 (sc), vehicle: saline with Tween-80","40 % of control, 85 % of control, 99 % of control"
same,T/C,[2],"16 % of control, 48 % of control, 73 % of control"
same,T/C,"dose: 800.0 mg/kg/injection, schedule: Q04DX003 (sc), vehicle: saline with Tween-80","8 % of control, 41 % of control, 62 % of control"
COc1cccc2c1C(=N)c1c(O)c3c(c(O)c1C2=O)C[C@@](O)(C(C)=O)C[C@@H]3OC1CC(N)C(O)C(C)O1 (some centres undefined),T/C,"dose: 8.0 mg/kg/injection, schedule: Q01DX010 (sc), vehicle: water",14 % of control and 48 % of control
CNC(=O)ON(C(C)=O)C(=O)NC,T/C,"dose: 25.0 mg/kg/injection, schedule: Q01DX010 (sc), vehicle: water",35 % of control and 78 % of control
same,T/C,"dose: 25.0 mg/kg/injection, schedule: Q04DX003 (sc), vehicle: saline",102 % of control and 157 % of control
same,T/C,"dose: 50.0 mg/kg/injection, schedule: Q01DX010 (sc), vehicle: water",7 % of control and 118 % of control
same,T/C,"dose: 100.0 mg/kg/injection, schedule: Q04DX003 (sc), vehicle: saline",41 % of control and 77 % of control
CNNCc1ccc(C(=O)NC(C)C)cc1,T/C,"dose: 200.0 mg/kg/injection, schedule: Q01DX010 (sc), vehicle: saline",6 % of control and 49 % of control
O=C(CCBr)N1CCN(C(=O)CCBr)CC1,T/C,"dose: 9.0 mg/kg/injection, schedule: Q01DX010 (sc), vehicle: Klucel (hydroxypropylcellulose) (HPC)",56 % of control and 95 % of control
O=C1N[C@@H]([C@H]2CC[C@H](Cl)CN2)C(=O)N[C@H]1[C@H]1CC[C@H](Cl)CN1,T/C,"dose: 1.25 mg/kg/injection, schedule: Q01DX010 (sc), vehicle: water",76 % of control and 123 % of control
O=C[C@@H](CO)O[C@H](C=O)n1cnc2c(=O)[nH]cnc21,T/C,[2],27 % of control and 78 % of control
same,T/C,"dose: 500.0 mg/kg/injection, schedule: Q04DX003 (sc), vehicle: saline with Tween-80",25 % of control and 73 % of control
CCOC(=O)C(N)CSC(=O)NC (centres undefined),T/C,"dose: 112.5 mg/kg/injection, schedule: Q04DX003 (sc), vehicle: saline",57 % of control and 161 % of control
C[n+]1c(-c2cccc(OCCOCCOc3cccc(-c4c5cc(N)ccc5c5ccc(N)cc5[n+]4C)c3)c2)c2cc(N)ccc2c2ccc(N)cc21,T/C,"dose: 8.0 mg/kg/injection, schedule: Q04DX003 (sc), vehicle: water",112 % of control and 155 % of control
same,T/C,"dose: 16.0 mg/kg/injection, schedule: Q04DX003 (sc), vehicle: water",18 % of control and 175 % of control
same,T/C,"dose: 32.0 mg/kg/injection, schedule: Q04DX003 (sc), vehicle: water",38 % of control and 165 % of control
CO[C@@]12[C@H](COC(N)=O)C3=C(C(=O)C(C)=C(N)C3=O)N1C[C@@H]1N[C@@H]12,T/C,"dose: 1.5 mg/kg/injection, schedule: Q04DX003 (sc), vehicle: saline",-74 % of control and -35 % of control
COc1cc2cc3cc4cc(OC)c(OC)cc4c(C)[n+]3cc2cc1OC (tested in a mixture with another compound),T/C,"dose: 300.0 mg/kg/injection, schedule: Q04DX003 (sc), vehicle: suspension in saline",69 % of control and 119 % of control
same,T/C,"dose: 600.0 mg/kg/injection, schedule: Q04DX003 (sc), vehicle: suspension in saline",76 % of control and 110 % of control
O=P1(NCCCl)OCCCN1CCCl (centres undefined),T/C,"dose: 37.5 mg/kg/injection, schedule: Q04DX003 (sc), vehicle: saline",3 % of control and 29 % of control
same,T/C,"dose: 75.0 mg/kg/injection, schedule: Q04DX003 (sc), vehicle: saline",-100 % of control and 4 % of control
NC(=O)SCC(N)C(=O)O (centres undefined),T/C,"dose: 900.0 mg/kg/injection, schedule: Q04DX003 (sc), vehicle: suspension in saline",15 % of control and 55 % of control
CS(=O)(=O)OCCN(CCOS(C)(=O)=O)c1ccc(C=O)cc1,T/C,[1],-58 % of control and 38 % of control
OCC1OC(n2cnc3c(=S)nc[nH]c32)C(O)C1O (centres undefined),T/C,"dose: 50.0 mg/kg/injection, schedule: Q01DX010 (sc), vehicle: saline",19 % of control and 53 % of control
OC(C1CO1)C(O)C1CO1 (centres undefined),T/C,"dose: 0.5 mg/kg/injection, schedule: Q01DX010 (sc), vehicle: saline",2 % of control and 52 % of control
same,T/C,"dose: 2.0 mg/kg/injection, schedule: Q01DX010 (sc), vehicle: saline",-23 % of control and 3 % of control

# From PubChem BioAssay AID296 (DTP/NCI, 2004)
